# Data published in paper PMC6919601, “Identification of Plasmodium dipeptidyl aminopeptidase allosteric inhibitors by high throughput screening” (PLoS ONE, 2019).
# Screen size: about 110,000 compounds; about 230 (0.21%) showed an effect of 50% or more. The list shows a part of the results.
# Molecular target: DPAP1 (Plasmodium falciparum, UniProt Q8IIJ9)
# Experiment: primary screen, percent inhibition; read by cleavage of a fluorogenic dipeptide substrate; higher = more effect of the substance
# Design: species or system P. falciparum D10 trophozoite lysates; single well
# 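Further: 30 min substrate incubation versus DMSO and 10 µM JCP410 controls.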
# DPAP1, sequence (Q8IIJ9 whole entry, looked up): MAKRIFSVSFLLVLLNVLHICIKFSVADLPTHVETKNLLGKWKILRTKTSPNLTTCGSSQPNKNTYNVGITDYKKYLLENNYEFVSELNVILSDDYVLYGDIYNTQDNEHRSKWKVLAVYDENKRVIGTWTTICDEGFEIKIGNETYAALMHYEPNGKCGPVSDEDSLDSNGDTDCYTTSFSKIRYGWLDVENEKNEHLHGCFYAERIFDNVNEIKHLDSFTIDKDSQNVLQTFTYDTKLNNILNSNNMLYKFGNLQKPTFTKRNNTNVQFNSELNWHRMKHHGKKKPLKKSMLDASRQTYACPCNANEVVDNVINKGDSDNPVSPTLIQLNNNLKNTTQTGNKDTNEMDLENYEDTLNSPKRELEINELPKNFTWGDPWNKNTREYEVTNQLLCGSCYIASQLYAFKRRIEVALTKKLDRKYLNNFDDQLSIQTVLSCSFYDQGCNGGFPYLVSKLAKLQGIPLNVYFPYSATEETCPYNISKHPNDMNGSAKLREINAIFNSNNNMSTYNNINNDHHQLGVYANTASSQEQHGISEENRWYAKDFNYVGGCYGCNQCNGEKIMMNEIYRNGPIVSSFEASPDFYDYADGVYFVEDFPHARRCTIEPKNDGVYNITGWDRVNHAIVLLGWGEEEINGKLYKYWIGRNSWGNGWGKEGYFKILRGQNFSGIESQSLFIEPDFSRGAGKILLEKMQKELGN
row,SMILES,% Inhibition @ 10 uM [%]
1,CCOCCO/C(O)=C1\C(C)=NC2=C(C(=O)CC(c3ccccc3)C2)C1c1ccccc1OCC (centres unmarked),-5.28
2,O=C(Cc1ccc(Br)cc1)NCCN1CCOCC1,-0.357
3,CCN(c1ccccc1)S(=O)(=O)c1ccc(NC(=O)c2ccccc2Cl)cc1,-0.312
4,CCN(CC)CCN(CC)CC(C)c1ccccc1 (centres unmarked),-6.62
5,Cc1cc(C)c(S(=O)(=O)N(C)Cc2ccccc2)c(C)c1,-2.54
6,Nc1nc(N2CCCCC2)ncc1F,6.49
7,Cc1nn(CC(=O)N2CC(C)CC(C)C2)c(=O)c2cc3sccc3n12 (centres unmarked),-3.35
8,CC1CCc2nn(CC(=O)NC3CCCc4ccccc43)cc2C1 (centres unmarked),4.95
9,CN(Cc1ccco1)c1ncnc2onc(-c3ccc(F)cc3)c12,4.74
10,COc1cc(CNCCO)ccc1OCc1ccccc1,-2.83
11,Cn1c(=O)c2c(ncn2Cc2ccc(F)cc2)n(C)c1=O,-7.94
12,O=C(Nc1cccc(Cl)c1)Nc1cccc(Cl)c1Cl,3.1
13,NC(=O)COc1ccccc1/C=C1/SC(Nc2cccc(C(F)(F)F)c2)=NC1=O,10.5
14,COc1ccccc1C1C2=C(O)CC(C)(C)CC2=Nc2nc(SCCN(C)C)nc(O)c21 (centres unmarked),1.02
15,COc1ccc(CN2CCSCC2)c(C)c1C,-1.86
16,Cc1ccc2c(CC(=O)N(Cc3ccccc3Cl)C3CCS(=O)(=O)C3)coc2c1 (centres unmarked),-2.4
17,C=CCOC(=O)C1=C(C)NC(=O)NC1c1ccccc1Cl (centres unmarked),1.83
18,COc1ccc(-n2nc3c(c2NC(=O)/C=C\c2ccc4c(c2)OCO4)CS(=O)(=O)C3)cc1,18.3
19,Cc1cc(C)c(S(=O)(=O)NCCc2ccncc2)c(C)c1,3.48
20,COc1ccc(-n2nnc(-c3nsc(NC(=O)c4ccccc4C)n3)c2C)cc1,-3.22
21,CN1CCN(Cc2c(O)ccc3ccccc23)CC1,-3.92
22,CCOC(=O)c1cnc2c(Cl)cccc2c1O,-0.267
23,CCC(NCCN(CC)CC)=C1C(=O)NC(=O)NC1=O,12.8
24,Cc1ccc(NC(=O)CN(C)S(=O)(=O)c2cc(Cl)ccc2Cl)c(C)c1,-0.469
25,O=C(Cn1nc(C(F)(F)F)cc1C1CC1)Nc1ccccc1F,1.17

row,SMILES,% Inhibition @ 10 uM [%]
1,CN1C(=O)C(=N)c2c3ccccc3c(O)c3c(N4CCCCC4)ccc1c23,0.51
2,COc1ccc(CNCc2c(C(=O)O)c(C)n(Cc3ccccc3F)c2C)cc1,-9.31
3,O=C1CC(c2cc(F)cc(F)c2)c2c(O)nc(SCc3ccccc3)nc2N1 (centres unmarked),2.25
4,CCOC(=O)c1c(NC(=O)c2ccc(Cl)cc2)sc2c1CC(C)(C)OC2,-8.7
5,CCN1C(=O)/C(=C/c2ccc(OC)c3ccccc23)C(=O)NC1=S,3.76
6,COc1ccccc1CNC(=O)C1CCC(CNS(=O)(=O)c2ccccc2)CC1 (centres unmarked),-8.34
7,O=c1c(CN2CC=C(c3ccc(F)cc3)CC2)coc2ccccc12,-5.31
8,C=CCN1C(=O)C2(C(C#N)=C(N)Oc3n[nH]c(C)c32)c2ccccc21 (centres unmarked),2.38
9,Cc1cccc(C(=O)NC2(C(F)(F)F)C(=O)Nc3c2c(=O)[nH]c(=O)n3-c2ccc(Cl)cc2)c1 (centres unmarked),-0.661
10,COc1cc(C(=O)Nc2ccc(Cl)nc2)cc(OC)c1OC,-6.17
11,Cc1ccc2oc(C(=O)Nc3nonc3C)c(C)c2c1,3.51
12,CCN1CCC(C#N)(NC(=O)[C@H](C[C@H](C)c2ccccc2)NC(=O)c2ccc(-c3ccccc3Cl)nc2)CC1,-1.82
13,Cc1ccc2nc3c(cc(C#N)c(=O)n3CCc3ccccc3)c(=O)n2c1,-0.551
14,CC(c1ccccc1)N1C(=O)c2cccnc2C1=O (centres unmarked),-7.15
15,CC(=O)N(CN1C(=O)c2ccc(Br)cc2C1=O)c1cccc(C(=O)O)c1,-1.42
16,Cn1c2ccccc2c2cnn(CC(=O)NCCN3CCCCCC3)c(=O)c21,-3.67
17,COc1cccc(NC(=O)C2(c3ccc(OC)c(OC)c3)CCOCC2)c1,-3.84
18,O=C(CN1C(=O)c2cccc3cccc1c23)Nc1ccc(S(=O)(=O)Nc2ccccc2)cc1,-8.18
19,CCCNC(=O)CSc1nnc(C)c2c(C)n(-c3ccc(Cl)cc3)nc12,1.23
20,CN1C(=O)/C(=C/c2cc(Cl)ccc2O)S/C1=N/c1cccc(C(=O)O)c1,2.13
21,O=C(O)Cc1sc(NCc2ccccc2)nc1-c1ccccc1,-2.91
22,CC(C)c1nnc(NC(=O)CSc2nnc3c(n2)[nH]c2ccccc23)s1,3.34
23,CCOCCCNC(=O)C(CC)n1nc(C)n2c(cc3sccc32)c1=O (centres unmarked),4.95
24,Cc1nn(CC(=O)NCC(C)c2ccccc2)c(=O)c2nn(-c3ccccc3)c(C)c12 (centres unmarked),7.36
25,COc1ccc(-c2noc(-c3cc4c(ccc5ccccc54)oc3=O)n2)cc1,-2.41
